Data on 86 sequences can be found in the supplement of paper PMC3334620.

Over roughly 33,000 sequences, “E-score (-0.5 to 0.5)” has its median near -0.012; the highest 2% begin near 0.29. This is one part of the list.

The test has as its target T1, Ybr033w (UniProt P38073).
T1 sequence: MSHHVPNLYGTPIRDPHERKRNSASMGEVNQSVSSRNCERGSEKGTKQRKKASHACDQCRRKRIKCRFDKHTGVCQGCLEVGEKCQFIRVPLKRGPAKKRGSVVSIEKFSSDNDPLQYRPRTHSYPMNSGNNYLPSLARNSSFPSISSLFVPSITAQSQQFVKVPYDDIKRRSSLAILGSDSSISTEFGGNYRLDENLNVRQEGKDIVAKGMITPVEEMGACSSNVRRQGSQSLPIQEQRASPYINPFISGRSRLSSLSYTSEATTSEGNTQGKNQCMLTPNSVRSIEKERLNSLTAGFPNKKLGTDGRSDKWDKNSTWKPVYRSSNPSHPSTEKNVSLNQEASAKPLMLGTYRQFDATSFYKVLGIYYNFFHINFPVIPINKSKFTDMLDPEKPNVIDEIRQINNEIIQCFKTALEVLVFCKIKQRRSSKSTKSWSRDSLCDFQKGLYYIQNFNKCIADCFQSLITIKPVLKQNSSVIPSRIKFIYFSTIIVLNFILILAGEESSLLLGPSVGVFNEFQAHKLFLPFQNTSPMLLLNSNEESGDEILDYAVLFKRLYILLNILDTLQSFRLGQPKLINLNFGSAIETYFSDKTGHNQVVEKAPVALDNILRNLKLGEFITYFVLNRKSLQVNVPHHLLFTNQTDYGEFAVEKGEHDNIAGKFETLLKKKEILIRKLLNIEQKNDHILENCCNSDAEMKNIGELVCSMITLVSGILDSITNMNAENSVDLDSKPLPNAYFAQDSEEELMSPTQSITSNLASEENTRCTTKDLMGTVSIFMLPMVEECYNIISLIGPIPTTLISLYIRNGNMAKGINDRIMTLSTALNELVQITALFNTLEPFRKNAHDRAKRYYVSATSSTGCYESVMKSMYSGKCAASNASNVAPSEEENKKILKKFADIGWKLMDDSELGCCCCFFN
Description: PBM E-score (8-mer binding enrichment) (E-score (-0.5 to 0.5)); higher = stronger / more preferred TF binding; most listed sequences are background and not binding sites. The conditions noted are these: protein concentration: 200 nM; construct: GST-full length. As to the method: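 Universal 'all 10-mer' protein binding microarrays (Agilent AMADID 015681) probed with GST-tagged S. cerevisiae TFs (full-length or DBD) made by in vitro transcription/translation (PURExpress), about 100-200 nM. Bound TF was detected with fluorescent anti-GST. Each ungapped 8-mer (which stands for itself and its reverse complement) is scored by the PBM enrichment score (E-score), a modified Wilcoxon-Mann-Whitney statistic from -0.5 to +0.5, computed with the Universal PBM Analysis Suite. Scale: above 0.35 generally sequence-specific binding.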
As to ATGACTAC, the “PBM E-score” value was -0.122.
GCTCCTAC: the “PBM E-score” value was -0.124.
With GCGCAGCA, the “PBM E-score” value was -0.176.
As to CCAGTAAG, the “PBM E-score” value was -0.0776.
Under ACGTCCCA stands -0.25; under AGCTAGGC, -0.194.
Take CATGTCGC: the “PBM E-score” value is -0.06.
For the sequence GGTACGGA, the “PBM E-score” value was -0.106.
Consider AGGGTAGA, for which the “PBM E-score” value was -0.177.
On to ACTGCGAA, for which the “PBM E-score” value is -0.0623.
CCACTGTC: the “PBM E-score” value is -0.2.
With AGTTAAAG, the “PBM E-score” value is 0.0526.
Regarding GCACACTA, the “PBM E-score” value is 0.0297.
Next, TGCTAGCA: -0.0081; CGCTTCTA: 0.0979.
For CCCGAAGG, the “PBM E-score” value was -0.163.
Under CCGCCTTC stands -0.153; under GCGTTTAA, 0.117.
Consider AAGTGCGA, for which the “PBM E-score” value is -0.169.
Regarding CGCGCGAA, the “PBM E-score” value was -0.068.
CCAGGAAA: the “PBM E-score” value stood at 0.237.
Under AGAACGCG stands -0.0831.
Consider ACCATCTG, for which the “PBM E-score” value was -0.122.
In the case of CCTTCCTA, the “PBM E-score” value is -0.182.
On to ACATTCCG, for which the “PBM E-score” value was -0.0433.
Turning to GACGGCGA, the “PBM E-score” value is -0.248.
As to AACGAAGT, the “PBM E-score” value came out at 0.106.
Regarding AAGCGAAA, the “PBM E-score” value is 0.0229.
As to ACCGTGGC, the “PBM E-score” value was -0.268.
In the case of AATCAAAG, the “PBM E-score” value is 0.0864.
In the case of ATGATGAC, the “PBM E-score” value worked out at 0.0631.
As for CAGGGCTA, the “PBM E-score” value is -0.156.
Next, CTCAGCAA: 0.104; AACACATG: 0.0413.
For the sequence AATTAAAG, the “PBM E-score” value is 0.217.
Under AGTCTATA stands 0.0345; under GAACAACA, 0.196.
Consider AGAAGACG, for which the “PBM E-score” value is 0.123.
For CGGGCAGA, the “PBM E-score” value is -0.0691.
For the sequence CACTCAAA, the “PBM E-score” value is 0.0703.
With CTTTCTAC, the “PBM E-score” value was determined as 0.00625.
As to CAGTGCGG, the “PBM E-score” value is -0.137.
Under TCATTACA stands 0.258; under CTAAACTC, 0.0381; under AGATTACT, 0.202.
In the case of ATTACATA, the “PBM E-score” value is 0.228.
Under GCGGTGTA stands -0.0247; under AGATACCT, -0.0724.
Take CTAGAAAG: the “PBM E-score” value worked out at 0.0991.
Next, TGAATGAA: 0.13; CGACTTTA: 0.141.
Take ATATCAGC: the “PBM E-score” value was -0.0414.
In the case of GGGCAATA, the “PBM E-score” value was -0.0229.
AACGTGTA: the “PBM E-score” value worked out at 0.114.
AAAGACGG: the “PBM E-score” value is -0.114.
ACGCACCT: the “PBM E-score” value is -0.0108.
In the case of CACCCCGC, the “PBM E-score” value is -0.106.
Regarding ATACAGCC, the “PBM E-score” value is -0.0236.
In the case of AATATGGA, the “PBM E-score” value was 0.107.
Next, ATTGAGGC: 0.105.
In the case of CATGGTTC, the “PBM E-score” value is -0.0103.
ATGGACCG: the “PBM E-score” value was -0.103.
Under CCATACCA stands 0.0828.
As for CTTGTGAC, the “PBM E-score” value was -0.0338.
Next, CAGGTTCC: -0.205; AGCTCAGA: -0.222; ACTTGGCC: -0.179.
With GGTCTTAC, the “PBM E-score” value was -0.0701.
Under AACTGGAA stands 0.134; under CGCCTTCA, -0.188.
For CCGCTTGC, the “PBM E-score” value was -0.0517.
Consider CATCAATC, for which the “PBM E-score” value turned out to be 0.0636.
With AGTGTGTG, the “PBM E-score” value came out at 0.0958.
Consider GAGGAACC, for which the “PBM E-score” value was -0.0925.
For AGGTCATA, the “PBM E-score” value was -0.0094.
Under ACATAAAT stands 0.149.
In the case of CAGTCGAG, the “PBM E-score” value was -0.244.
Turning to GGACTAAC, the “PBM E-score” value is -0.0911.
For AACCTCCT, the “PBM E-score” value was 0.0181.
As for GACCTGGA, the “PBM E-score” value is -0.0751.
As for AAAGAATG, the “PBM E-score” value came out at 0.284.
Turning to AGCCTAAC, the “PBM E-score” value was -0.0736.
Next, AGTGGCCC: -0.284.
Next, CAATCCGA: 0.14.
With GCCCCACC, the “PBM E-score” value is -0.0518.
In the case of CCCCGGGA, the “PBM E-score” value was -0.241.
